# Laboratory results published in the supplement of paper PMC4466236.
# In all, about 33,000 sequences were measured (“E-score (dimensionless, -0.5 to 0.5)”: median about -0.058, highest 2% from about 0.35 on). This is one part of the list.
# System: MvaT
# Test: PBM 8-mer E-score (mean of HK and ME arrays) (E-score (dimensionless, -0.5 to 0.5)); higher = stronger relative binding preference; most listed sequences are background and not binding sites
# In short: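 Reported values are rank-based E-scores, taken as the mean of two universal arrays and parsed with a custom script. Each 8-mer score falls between -0.5 and 0.5. The arrays, ME and HK, were double-stranded 60-mers with a constant 25-mer primer region and a variable 35-mer region covering all 8-mers. They were probed, by an earlier protocol, with full-length P. aeruginosa MvaT carrying an N-terminal glutathione S-transferase fusion.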
row,Sequence,PBM 8-mer E-score
1,AGCGTTAC,0.0974
2,GGAAATAC,0.0517
3,ATTTAATA,0.411
4,AAATGGAA,0.123
5,TATGAACA,0.164
6,GCGAGGCA,-0.257
7,AAGACGCT,-0.168
8,TTATCAAA,0.156
9,GCGCTACC,-0.144
10,AAGAAGCA,-0.121
11,CGAGAAAA,0.129
12,CTAATCGC,-0.0851
13,CACAAAAG,0.0627
14,CAGGGCTC,-0.343
15,GTGAGGTA,0.0259
16,CAGCCACC,-0.145
17,AGTAATAT,0.418
18,CTCAGACC,-0.184
19,GATGGCAC,-0.15
20,AGTCTGAC,-0.0126
21,AAAACTGA,0.0579
22,CACGATTA,0.0205
23,ATCCTTCG,-0.0833
24,GGTGGGTA,-0.0509
25,CGCGACCA,-0.153

row,Sequence,PBM 8-mer E-score
1,AGATTATA,0.39
2,ATTCTCCG,-0.0509
3,AAACACGA,0.0986
4,CACACGAG,-0.0967
5,ATTTTGTA,0.194
6,TCAGCGAA,-0.0912
7,CAGCTTCA,-0.293
8,ACTCGAAT,0.103
9,CGTAGCGA,-0.233
10,CTAACGCA,-0.0805
11,GAGTCCAC,-0.279
12,ATTGCGGA,0.21
13,CCGCAAGG,-0.337
14,ATGGCACA,-0.0727
15,CCGTTGAG,-0.239
16,CTCTCCAA,-0.0509
17,TCTTTTAA,0.296
18,AAGTCTCG,0.0345
19,CAAAAGTA,0.16
20,ACTAACTA,0.381
21,CCGGAGGA,-0.252
22,ATGGGCTA,0.00241
23,CCGCGGGA,-0.186
24,ACCGTAAG,0.148
25,GACCGAAA,-0.0789

row,Sequence,PBM 8-mer E-score
1,AGTTGGGC,0.0103
2,GGTTTTTA,0.207
3,TCGTAAAA,0.149
4,CGCTGAGC,-0.223
5,CCTACGAC,-0.256
6,ACACGGCC,-0.133
7,CCAACCAA,-0.146
8,ACTAGCCG,-0.0374
9,CCTCTGCA,-0.27
10,CAGCCCTC,-0.241
11,AGGCGGTG,-0.00443
12,CTATGGCA,-0.284
13,TCATGCCA,-0.0757
14,GAGAACGA,-0.25
15,CGGGGTCC,-0.264
16,AGATCTCA,-0.0537
17,GCTCGATA,-0.0114
18,GTAGTGAC,-0.0876
19,CGCATCCA,-0.25
20,AGGCATTA,0.0775
21,CATCGACG,-0.248
22,GGCTGTAA,0.00482
23,AAGGGTCG,-0.115
24,CCACATCG,-0.175
25,CGGGGATA,0.0564

row,Sequence,PBM 8-mer E-score
1,AAGTTGTA,0.309
2,TCTCTGCA,-0.148
3,TCTGAAGA,0.16
4,AAACAACA,0.214
5,CGATTATC,0.206
6,ACGCCACC,-0.0744
7,ATAATTTG,0.298
8,AACATTGG,0.0636
9,ACAATAAA,0.356
10,CCCGTTAA,0.186
11,GCTCGAGA,-0.152
12,ACGACGCT,-0.121
13,ATAGCTAC,0.00214
14,CGACGTCC,-0.271
15,AGACATCA,-0.066
16,CAGGGTTA,-0.000473
17,ACTGTCAC,-0.0625
18,AGGTGTTA,0.0743
19,GCTTATGA,-0.0922
20,GTTGTACA,0.115
21,GGCCATGA,-0.203
22,GCCGTTGA,-0.28
23,CGCACCAA,-0.207
24,ACGAATTC,0.0502
25,GGGATCGA,-0.139

row,Sequence,PBM 8-mer E-score
1,ACCGTACC,-0.217
2,GTACCGAA,-0.0613
3,AGCTGGGG,-0.186
4,CAGCCCCC,-0.34
5,CTGGGAGA,-0.163
6,ATATGGAG,0.154
7,GATCCCGA,-0.0935
8,CCCCCGGC,-0.255
9,CACGGCTG,-0.201
10,GTCCATCA,-0.141
11,GTAAGGCA,-0.0576
12,AGGTCCCG,-0.203
13,ACCCCCTC,-0.368
14,CCATGGTC,-0.233
15,GACAACTC,-0.0737
16,ATGGCGAA,-0.00947
17,ATGCAGAG,-0.177
18,GGCTGAGA,-0.205
19,AAAAACAA,0.255
20,CGTCCTCA,-0.231
21,CAAGACTC,-0.137
22,CCGGTCAA,-0.0838
23,CGGCACCC,-0.287
24,CATCGCGA,-0.0482
25,CGACGTGA,-0.0792

row,Sequence,PBM 8-mer E-score
1,ATCTCAAG,0.0032
2,AGGCTTGA,-0.168
3,GGAGGAAC,-0.236
4,CGGTCAAA,-0.0553
5,ATAAGGCG,0.072
6,AGCTCAAA,-0.0057
7,ACTTGAAT,0.174
8,ACCAGCCG,-0.019
9,CGTAGTCA,-0.0136
10,TACAGAAA,0.0518
11,CGACCTCC,-0.209
12,CAGGTGGC,-0.296
13,ATAGTTGC,0.231
14,CCTCAGTA,-0.187
15,AATCATTA,0.311
16,CCAGTTCA,-0.0519
17,GAGGATAC,-0.068
18,GATCGGGA,-0.107
19,CTAAATAG,0.102
20,AGTCAATG,-0.0492
21,CGTAGTAC,-0.0198
22,AGGGGAAG,-0.153
23,CCTGTGTC,-0.169
24,CTGCATCA,-0.0868
25,CCGCTCAA,-0.0312

row,Sequence,PBM 8-mer E-score
1,GCCTCCGA,-0.342
2,ATCAGCGC,-0.132
3,AGACACTG,-0.178
4,ATATACAC,0.336
5,AACAACGG,0.0601
6,AAAGGGGT,-0.0534
7,CCTACTTC,0.0204
8,AGGAGTGC,-0.205
9,GAAACCTC,-0.246
10,AGATGAGG,-0.214
11,CCCTCAAC,-0.0409
12,CGATATCG,0.128
13,CAGGTAAC,-0.0745
14,CGTATCTA,0.0267
15,ACAGAAAC,0.0564
16,AATGCCCT,-0.161
17,ATCTGACA,0.0827
18,AGCTCTCG,-0.164
19,CCATGTAG,-0.0553
20,CTAGAAAC,-0.0163
21,GGTGCCGA,-0.235
22,ACGGTCGG,-0.0606
